{"source": "paper PMC4336329", "about": "(PLoS ONE, 2015)", "note": "Hit rate of the full screen: of about 310,000 compounds, about 2,200 (0.71%) showed an effect of 50% or more. Effects have a minus sign here. This is one part of the list."}
{"target": "human ether-à-go-go-related gene (hERG) potassium channel (human, UniProt Q12809)", "sequence (Q12809 whole entry, looked up)": "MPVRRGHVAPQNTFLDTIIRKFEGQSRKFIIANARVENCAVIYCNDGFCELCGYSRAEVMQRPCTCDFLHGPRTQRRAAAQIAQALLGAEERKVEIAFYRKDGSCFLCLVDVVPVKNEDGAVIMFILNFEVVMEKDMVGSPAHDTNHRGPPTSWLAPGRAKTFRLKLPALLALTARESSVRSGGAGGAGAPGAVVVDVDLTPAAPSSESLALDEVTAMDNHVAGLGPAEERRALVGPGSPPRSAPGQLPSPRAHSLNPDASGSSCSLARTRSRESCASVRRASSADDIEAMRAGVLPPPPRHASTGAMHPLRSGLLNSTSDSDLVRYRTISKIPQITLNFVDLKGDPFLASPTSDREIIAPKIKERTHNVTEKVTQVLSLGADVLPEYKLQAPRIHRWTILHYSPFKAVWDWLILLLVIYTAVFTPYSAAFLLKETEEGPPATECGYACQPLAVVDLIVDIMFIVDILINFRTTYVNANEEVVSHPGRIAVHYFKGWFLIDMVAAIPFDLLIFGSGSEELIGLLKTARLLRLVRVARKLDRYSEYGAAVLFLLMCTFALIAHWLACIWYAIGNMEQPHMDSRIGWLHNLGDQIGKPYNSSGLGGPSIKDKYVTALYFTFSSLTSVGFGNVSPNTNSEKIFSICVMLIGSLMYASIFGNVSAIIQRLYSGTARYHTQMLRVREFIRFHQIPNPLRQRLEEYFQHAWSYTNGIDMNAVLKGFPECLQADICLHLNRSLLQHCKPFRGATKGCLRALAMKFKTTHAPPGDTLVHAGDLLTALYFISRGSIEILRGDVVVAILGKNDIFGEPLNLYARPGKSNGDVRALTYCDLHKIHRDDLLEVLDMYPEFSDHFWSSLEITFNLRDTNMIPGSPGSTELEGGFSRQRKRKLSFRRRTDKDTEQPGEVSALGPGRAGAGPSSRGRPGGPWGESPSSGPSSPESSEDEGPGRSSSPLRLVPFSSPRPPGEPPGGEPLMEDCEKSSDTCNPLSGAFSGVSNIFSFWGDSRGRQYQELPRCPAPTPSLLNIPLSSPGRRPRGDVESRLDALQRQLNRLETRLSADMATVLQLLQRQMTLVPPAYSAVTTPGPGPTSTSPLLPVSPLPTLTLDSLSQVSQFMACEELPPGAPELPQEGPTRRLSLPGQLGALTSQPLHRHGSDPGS", "experiment": "primary screen, population patch clamp on CHO cells stably expressing hERG", "units": {"hERG current change (%, negative = inhibition) at 1uM": "%"}}
{"smiles": "NC1=C(c2ccc(F)cc2)C(=O)CS1", "hERG current change (%, negative = inhibition) at 1uM": 14.8}
{"smiles": "Cc1ccc(NC(=O)c2ccc([N+](=O)[O-])cc2)cc1S(=O)(=O)N(C)C", "hERG current change (%, negative = inhibition) at 1uM": 0.664}
{"smiles": "COc1ccc(C(=O)c2c3ccccc3[n+]([O-])n2CCC(N)=O)cc1", "hERG current change (%, negative = inhibition) at 1uM": 19.5}
{"smiles": "COc1ccc(NC(=O)Cn2c(=O)n(CC3CCCO3)c(=O)c3cc(OC)c(OC)cc32)cc1OC", "note": "(stereo not drawn)", "hERG current change (%, negative = inhibition) at 1uM": 6.77}
{"smiles": "O=C(O)C(C(=O)/C=C/c1ccco1)=C1SCCS1", "hERG current change (%, negative = inhibition) at 1uM": 5.17}
{"smiles": "CCCCCC1CC(/C(C)=N/NC(N)=O)OC1=O", "note": "(stereo not drawn)", "hERG current change (%, negative = inhibition) at 1uM": -0.329}
{"smiles": "CC1Cc2ccccc2N1C(=O)CCS(=O)(=O)c1cccc2nonc12", "note": "(stereo not drawn)", "hERG current change (%, negative = inhibition) at 1uM": 6.5}
{"smiles": "COc1ccc(N(C(=O)c2ccco2)C(C(=O)NC2CCCC2)c2ccc(N(C)C)cc2)cc1OC", "note": "(stereo not drawn)", "hERG current change (%, negative = inhibition) at 1uM": 13.8}
{"smiles": "COc1cccc(CC2(CO)CCCN(Cc3cn[nH]c3C3CCCCC3)C2)c1", "note": "(stereo not drawn)", "hERG current change (%, negative = inhibition) at 1uM": 5.05}
{"smiles": "Cc1cc(OCC(=O)NCC(c2ccc(F)cc2)N2CCOCC2)ccc1Cl", "note": "(stereo not drawn)", "hERG current change (%, negative = inhibition) at 1uM": -9.6}
{"smiles": "CCCC(=O)N(CCN1CCOCC1)c1nc2c(F)cc(F)cc2s1.Cl", "hERG current change (%, negative = inhibition) at 1uM": 4.18}
{"smiles": "CCn1c(SCC(=O)NC2CCCCC2)nnc1-c1ccccc1F", "hERG current change (%, negative = inhibition) at 1uM": 15.1}
{"smiles": "O=S1(=O)CCOCCCN1Cc1ccccc1F", "hERG current change (%, negative = inhibition) at 1uM": 14.1}
{"smiles": "O=C1CC(c2ccco2)Sc2ccccc2N1", "note": "(stereo not drawn)", "hERG current change (%, negative = inhibition) at 1uM": 10}
{"smiles": "COC(=O)c1ccccc1NC(=O)c1cc(-c2ccc(C)cc2)on1", "hERG current change (%, negative = inhibition) at 1uM": -16}
{"smiles": "Cc1ccc(-n2nnc(-c3cnc4ccccc4c3)n2)cc1", "hERG current change (%, negative = inhibition) at 1uM": 17.2}
{"smiles": "CN=C1c2cc3cc(OC)ccc3n2CCN1C.Cl", "hERG current change (%, negative = inhibition) at 1uM": -22.2}
{"smiles": "COC(=O)C1CCN(C(=O)CSc2nc3ccc(OC)cc3[nH]2)CC1", "hERG current change (%, negative = inhibition) at 1uM": 0.401}
{"smiles": "CCCS(=O)(=O)c1c(S(=O)(=O)CCC)c2ccc(C(N)=O)cn2c1C(=O)c1ccc(OC)cc1", "hERG current change (%, negative = inhibition) at 1uM": 9.09}
{"smiles": "Nc1c(C(=O)NCc2ccc3c(c2)OCO3)nnn1CC(=O)Nc1ccc(Br)cc1", "hERG current change (%, negative = inhibition) at 1uM": 13.4}
{"smiles": "NS(=O)(=O)c1ccc(CCNC(=O)CCC(=O)c2cccs2)cc1", "hERG current change (%, negative = inhibition) at 1uM": 3.27}
{"smiles": "COc1ccc(NC(=O)c2cnc(NS(=O)(=O)c3ccccc3)nc2)cc1", "hERG current change (%, negative = inhibition) at 1uM": 8.41}
{"smiles": "COc1ccccc1/C=N/NC(=O)NC12CC3CC(CC(C3)C1)C2", "hERG current change (%, negative = inhibition) at 1uM": 15.2}
{"smiles": "O=C(N/N=C1/C(=O)c2cccc3cccc1c23)c1ccc(Cl)cc1", "hERG current change (%, negative = inhibition) at 1uM": 17.7}
{"smiles": "CCc1cc(=O)oc2cc(OCC(=O)N3CCC[C@H]3C(=O)O)ccc12", "hERG current change (%, negative = inhibition) at 1uM": 8.19}
{"smiles": "Cl.Oc1ccc(CNC2CCCCC2)cc1", "hERG current change (%, negative = inhibition) at 1uM": -0.777}
{"smiles": "COC(=O)Cc1nc2ccccc2[nH]1.Cl", "hERG current change (%, negative = inhibition) at 1uM": 14.7}
{"smiles": "COc1ccccc1-n1cnnc1SCC(=O)NCc1cccs1", "hERG current change (%, negative = inhibition) at 1uM": 6.63}
{"smiles": "COc1cccc(NC(=O)CN2C(=O)NC(C)(CCC(C)C)C2=O)c1", "note": "(stereo not drawn)", "hERG current change (%, negative = inhibition) at 1uM": 8.31}
{"smiles": "COC(=O)c1ccc(Cn2nc(C)c(Cl)c2C)o1", "hERG current change (%, negative = inhibition) at 1uM": 18}
{"smiles": "Br.COc1ccccc1OCC(=O)NN1Cc2ccccc2C1=N", "hERG current change (%, negative = inhibition) at 1uM": 11.2}
{"smiles": "Cc1cc(NCc2ccco2)nc2cc(O)ccc12", "hERG current change (%, negative = inhibition) at 1uM": -1.42}
{"smiles": "CCCCCC(=O)Nc1ccc(S(=O)(=O)Nc2nccnc2OC)cc1", "hERG current change (%, negative = inhibition) at 1uM": 1.19}
{"smiles": "CC1=CC(=C(C#N)c2nc3ccccc3s2)C=C(C)N1Cc1ccco1", "hERG current change (%, negative = inhibition) at 1uM": 3.93}
{"smiles": "COc1cccc(C(=O)Nc2ccc(C(=O)c3ccncc3)cc2)c1", "hERG current change (%, negative = inhibition) at 1uM": 0.376}
{"smiles": "CC(C)CC(c1nnnn1Cc1ccccc1)N1CCN(C(=O)c2ccco2)CC1", "note": "(stereo not drawn)", "hERG current change (%, negative = inhibition) at 1uM": -11.2}
{"smiles": "CCCCN(C(=O)c1cc2ccccc2o1)c1c(N)n(CC(C)C)c(=O)[nH]c1=O", "hERG current change (%, negative = inhibition) at 1uM": 6.09}
{"smiles": "O=C(NC1CCCC1)C(c1ccc(N2CCOCC2)cc1)N(C(=O)c1ccco1)c1ccccc1F", "note": "(stereo not drawn)", "hERG current change (%, negative = inhibition) at 1uM": 15.4}
{"smiles": "CCCNC(=O)c1cc(OC)c(OC)cc1[N+](=O)[O-]", "hERG current change (%, negative = inhibition) at 1uM": 0.889}
{"smiles": "CCSc1nnc(NC(=O)[C@H](C)N2C(=O)C3CC=CCC3C2=O)s1", "note": "(stereo partly drawn)", "hERG current change (%, negative = inhibition) at 1uM": 8.93}
{"smiles": "CC1Cc2nc(SCC(=O)Nc3ccc4c(c3)OCO4)n(-c3ccc(F)cc3)c(=O)c2S1", "note": "(stereo not drawn)", "hERG current change (%, negative = inhibition) at 1uM": 4.81}
{"smiles": "Cc1nnc(SCC(=O)N2CCC(Cc3ccccc3)CC2)n(N)c1=O", "hERG current change (%, negative = inhibition) at 1uM": -1.97}
{"smiles": "Cc1c(C(=O)N2CCC3(CC2)OCCO3)sc2ncnc(N(C)c3ccccc3)c12", "hERG current change (%, negative = inhibition) at 1uM": -1.12}
{"smiles": "CCc1cc2c(=O)c(-c3nc(C)cs3)coc2cc1OC(C)C(=O)NCCO", "note": "(stereo not drawn)", "hERG current change (%, negative = inhibition) at 1uM": 5.41}
{"smiles": "Cc1nnc(SCC(=O)Nc2cc(Cl)ccc2Cl)n1CC1CCCO1", "note": "(stereo not drawn)", "hERG current change (%, negative = inhibition) at 1uM": 4.35}
{"smiles": "CN(C)S(=O)(=O)c1ccc(Cl)c(NC(=O)C2CCN(S(=O)(=O)c3cccs3)CC2)c1", "hERG current change (%, negative = inhibition) at 1uM": 8.6}
{"smiles": "COc1ccc(CNC(=O)N2CCN(S(=O)(=O)c3ccc(C)cc3C)CC2)cc1", "hERG current change (%, negative = inhibition) at 1uM": 11}
{"smiles": "Cc1ccc(-c2csc3ncn(C(C)C(=O)O)c(=O)c23)cc1", "note": "(stereo not drawn)", "hERG current change (%, negative = inhibition) at 1uM": 9.07}
{"smiles": "COC(=O)c1sc(NC(=O)CSc2nnnn2-c2ccc(C)cc2C)nc1C", "hERG current change (%, negative = inhibition) at 1uM": 10.6}
{"smiles": "CN(Cc1nc2ccccc2c(=O)[nH]1)C(=O)c1ccc(S(=O)(=O)N(C)C)cc1", "hERG current change (%, negative = inhibition) at 1uM": 3.22}
{"smiles": "CC12COC3(C(=O)Nc4ccc([N+](=O)[O-])cc4)CC1CCC32C", "note": "(stereo not drawn)", "hERG current change (%, negative = inhibition) at 1uM": 0.546}
{"smiles": "COc1cc(OC)cc(-n2nnnc2SCC(=O)Nc2ccc(C(C)=O)cc2)c1", "hERG current change (%, negative = inhibition) at 1uM": 10.2}
{"smiles": "COc1ccc(CCN(Cc2ccccn2)C(=S)Nc2cccc(C)c2)cc1OC", "hERG current change (%, negative = inhibition) at 1uM": 1.45}
{"smiles": "Cc1cc(CNC(=O)C2CCC(=O)N(CCc3ccc(Cl)cc3)C2)no1", "note": "(stereo not drawn)", "hERG current change (%, negative = inhibition) at 1uM": -13.8}
{"smiles": "O=C(COc1ccc(Br)cc1Cl)c1ccc[nH]1", "hERG current change (%, negative = inhibition) at 1uM": 8.4}
{"smiles": "NP(=O)(Oc1ccc(Cl)cc1)Oc1ccc(Cl)cc1", "hERG current change (%, negative = inhibition) at 1uM": 2.75}
{"smiles": "COC(=O)c1ccccc1NS(=O)(=O)c1ccc2c(c1)oc(=O)n2C", "hERG current change (%, negative = inhibition) at 1uM": 11.3}
